# “And” between values parts separate entries of the source, which are not always exact repeats. Equal entries are not always repeated. Hit rate of the full screen: of about 360,000 compounds, about 7,500 (2.1%) were called active. Inconclusive means that the source gave no clear call. Such entries were picked first, then a sample of the others. Calls follow the shape of the dose curve; as a rule, active = well fitted cell-killing curve with a large enough effect; inconclusive = small, poorly fitted or top-dose-only effect, or effect the other way, or another doubt; inactive = no such curve, though single readings can be large or run the other way. Potencies beside an inconclusive call are fits to weak or partial responses and may not hold up.
# Test: qHTS for induction of synthetic lethality in tumor cells producing 2HG: qHTS for the HT-1080-IDH1KD cell line;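 as to activity, negative = toxicity: 0% = DMSO wells and -100% = cell-free medium wells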
# Conditions: HT-1080 IDH1 knockdown viability, ATP luminescence, 48 h; activity, negative = toxicity: at 46.1 µM (top of the series) unless noted
# Method in brief: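 IDH1KD HT-1080 cells, 750/well, RPMI + 5% FBS; compound pinned after 2 h settling; 48 h, 37 °C; CellTiter-Glo luminescence; % activity normalised to DMSO and no-cell wells; curves fitted, classed by r2 and efficacy.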
# Potency is read from the fitted curve at half-maximal effect; tags tell the direction and shape of the fitted curve.
Structure (SMILES),Potency,"activity, negative = toxicity"
Cc1ccc2c(c1)c(C)c(C)n2CC(O)Cn1nc(C)c(Br)c1C (stereo not drawn),"inconclusive: 29.1 µM [cytotoxic, single point]",–
O=[N+]([O-])c1ccc(S(=O)(=O)Nc2nnc(C(F)(F)F)s2)cc1,–,inactive: -5.83%
Nc1ccc2nc(-c3ccccc3)sc2c1,"inconclusive: 16.4 µM [cytotoxic, single point]",–
CCc1cc(C=C(Cl)Cl)oc(=O)c1C,"inconclusive: 28.2 µM [cytotoxic, single point]",–
O=C(CSc1ncc(-c2ccccc2)n1C1CCCC1)N1CCc2ccccc21,"inconclusive: 15.8 µM [cytotoxic, single point]",–
Cc1nc2c(ccc3nc(NC(=O)C4CC4)sc32)s1,"inconclusive: 25.9 µM [cytotoxic, partial curve]",–
CCOC(=O)c1c(NC(C)=O)sc2c1CCC(C=NCCCN(CC)CC)=C2Sc1ccccc1,"inconclusive: 20.6 µM [cytotoxic, single point]",–
O=C(N/C(=C/c1cccc(Br)c1)c1nc(=S)[nH][nH]1)c1ccccc1,"inconclusive: 18.4 µM [cytotoxic, single point]",–
CCC(C)N1C(=O)CN(C2CCCCCC2)C(=O)C1c1ccccc1F (stereo not drawn),–,inactive: 3.81%
O=C(CCN1CCN(c2ccccc2F)CC1)c1ccc(Br)cc1,"inconclusive: 29.1 µM [cytotoxic, single point]",–
O=C(CCC(=O)c1cccs1)NCc1ccccc1Cl,–,inactive: -0.144%
Cc1ccc(S(=O)(=O)N2CCC(C(=O)OCC(=O)N(CC(C)C)C3CCS(=O)(=O)C3)CC2)cc1C (stereo not drawn),"inconclusive: 20.6 µM [rising, single point]",–
Cc1ccc(NC(=O)CSc2n[nH]c(-c3ccccn3)n2)cc1,"inconclusive: 10.3 µM [cytotoxic, partial curve]",–
CN(CC(=O)NC(=O)NCc1ccccc1)CC(=O)Nc1ccc(Cl)c(Cl)c1,"inconclusive: 23.1 µM [cytotoxic, partial curve, poor fit]",–
CCC1=NN(C(=O)C(=O)NCCc2ccccc2)C(O)(C(F)(F)F)C1 (stereo not drawn),active: 17.8 µM,–
N#Cc1cccc2c1-c1ccccc1/C2=N/NC(N)=S,active: 20.6 µM,–
COc1ccc(Cl)cc1NC(=O)CNc1ccccc1F,"inconclusive: 29.1 µM [cytotoxic, single point]",–
CCCN1C(=O)C(=O)c2cc(C)ccc21,"inconclusive: 20.6 µM [cytotoxic, single point]",–
CCC(C)(C)NC(=O)C(c1cccn1C)N(Cc1ccc(OC)cc1)C(=O)Cn1nnc2ccccc21 (stereo not drawn),–,inactive: -27.5%
Nn1c(Nc2ccccc2)nc2sc3c(c2c1=O)CCC3,"inconclusive: 18.4 µM [cytotoxic, partial curve]",–
O=c1ccc2nc3ccccc3sc-2c1,"inconclusive: 18.4 µM [cytotoxic, single point]",–
O=[N+]([O-])c1cc(-c2ncccn2)c([N+](=O)[O-])s1,active: 20.6 µM,–

Structure (SMILES),Potency,"activity, negative = toxicity"
Clc1cccc(CSc2nnc(-c3cccnc3)n2Cc2ccco2)c1,"inconclusive: 14.1 µM [cytotoxic, single point]",–
CC(C)(C)NC(=O)C(c1ccncc1)n1c(=O)c(-c2cc3ccccc3[nH]2)nc2ccccc21 (stereo not drawn),"inconclusive: 23.1 µM [cytotoxic, single point]",–
COc1cc(CNc2ccc(N3CCCC3)cc2)cc(Cl)c1OC,"inconclusive: 25.9 µM [cytotoxic, single point]",–
COc1cccc(-c2nnc3n2N=C(C(C)(C)C)CS3)c1,"inconclusive: 18.4 µM [cytotoxic, single point]",–
COc1cc(C(=O)OCC(=O)NCc2ccco2)cc(OC)c1OC,–,inactive: 2.23%
CC1(C(=O)NS(=O)(=O)c2ccc(C#N)cc2)CCN1C(=O)C1(c2ccc(Cl)cc2)CC1 (stereo not drawn),–,inactive: 15.8%
Fc1ccc(C(CCCn2nnc(-c3cccnc3)n2)c2ccc(F)cc2)cc1,"inconclusive: 32.6 µM [cytotoxic, single point]",–
Oc1ccc(CNc2ccccc2)c2cccnc12,"inconclusive: 16.4 µM [cytotoxic, single point]",–
COc1cc(C(=O)c2ccc3c(c2)OCO3)cc(OC)c1OC,active: 2.59 µM,–
Cc1ccn2c(NC3CCCCC3)c(-c3cccc(SC4CCCCC4)c3)nc2c1,"inconclusive: 16.4 µM [cytotoxic, single point] and inconclusive: 18.4 µM [cytotoxic, single point]",–
C/C(Cn1nnc([N+](=O)[O-])n1)=N\NC(=O)c1ccc(Cl)c(Cl)c1,"inconclusive: 35.5 µM [cytotoxic, single point]",–
CCOC(=O)Cc1csc(NC(=O)Nc2ccccc2)n1,"inconclusive: 18.4 µM [cytotoxic, single point]",–
CN(C)CCNC(=O)/C(=C/c1ccc(-c2cccc([N+](=O)[O-])c2)o1)NC(=O)c1ccccc1,"inconclusive: 14.6 µM [cytotoxic, single point]",–
COc1cc(OC)cc(-c2c(-c3cccs3)c3cc(-c4ccn[nH]4)ccc3n2C)c1,"inconclusive: 29.1 µM [cytotoxic, single point]",–
CCCCN(CC)Cc1ccc(CNC(=O)Nc2ccc(F)cc2)o1,"inconclusive: 3.55 µM [cytotoxic, full curve]",–
CCc1nc2c(OCCC3CCCCC3)cccn2c1N(C)C(=O)c1ccccc1F,"inconclusive: 29.1 µM [cytotoxic, single point]",–
CCn1c(O)c(/C=N/N=C/c2ccccc2)c2ccc(C3=NNC(=O)CC3)cc21,"inconclusive: 18.4 µM [cytotoxic, single point]",–
COc1ccc(-c2cc(C(=O)N/N=C/c3cccnc3)c3ccccc3n2)cc1,"inconclusive: 20.6 µM [cytotoxic, partial curve]",–
CCOc1ccc2nc(N3C(=O)/C(=C/c4ccccc4)NC3=S)sc2c1,–,inactive: 8.81%
Nc1nc(Nc2cccc(C(F)(F)F)c2)nc(C(F)(F)F)n1,"inconclusive: 18.4 µM [cytotoxic, single point]",–
Cc1ccc2nc(C)c3c(c2c1)N(c1ccccc1)CC3,"inconclusive: 29.1 µM [cytotoxic, single point]",–

# Source: PubChem BioAssay AID686971 (National Center for Advancing Translational Sciences (NCATS), 2013)
